About 31,000 (8.9%) of roughly 350,000 compounds were called active. The shares of active, inactive and inconclusive entries below differ from those in the screen. Calls follow the shape of the dose curve; as a rule, active = well fitted inhibition curve with a large enough effect; inconclusive = small, poorly fitted or top-dose-only effect; inactive = no such curve, though single readings can be large or run the other way. Potencies of inconclusive entries are doubtful fits and often do not repeat. The source holds several records for some structures; these can differ, active in one and inactive in another.
Target: Histone-lysine N-methyltransferase EHMT2 (Homo sapiens) (UniProt Q96KQ7)
Sequence of UniProt Q96KQ7 (Q96KQ7 whole entry, looked up): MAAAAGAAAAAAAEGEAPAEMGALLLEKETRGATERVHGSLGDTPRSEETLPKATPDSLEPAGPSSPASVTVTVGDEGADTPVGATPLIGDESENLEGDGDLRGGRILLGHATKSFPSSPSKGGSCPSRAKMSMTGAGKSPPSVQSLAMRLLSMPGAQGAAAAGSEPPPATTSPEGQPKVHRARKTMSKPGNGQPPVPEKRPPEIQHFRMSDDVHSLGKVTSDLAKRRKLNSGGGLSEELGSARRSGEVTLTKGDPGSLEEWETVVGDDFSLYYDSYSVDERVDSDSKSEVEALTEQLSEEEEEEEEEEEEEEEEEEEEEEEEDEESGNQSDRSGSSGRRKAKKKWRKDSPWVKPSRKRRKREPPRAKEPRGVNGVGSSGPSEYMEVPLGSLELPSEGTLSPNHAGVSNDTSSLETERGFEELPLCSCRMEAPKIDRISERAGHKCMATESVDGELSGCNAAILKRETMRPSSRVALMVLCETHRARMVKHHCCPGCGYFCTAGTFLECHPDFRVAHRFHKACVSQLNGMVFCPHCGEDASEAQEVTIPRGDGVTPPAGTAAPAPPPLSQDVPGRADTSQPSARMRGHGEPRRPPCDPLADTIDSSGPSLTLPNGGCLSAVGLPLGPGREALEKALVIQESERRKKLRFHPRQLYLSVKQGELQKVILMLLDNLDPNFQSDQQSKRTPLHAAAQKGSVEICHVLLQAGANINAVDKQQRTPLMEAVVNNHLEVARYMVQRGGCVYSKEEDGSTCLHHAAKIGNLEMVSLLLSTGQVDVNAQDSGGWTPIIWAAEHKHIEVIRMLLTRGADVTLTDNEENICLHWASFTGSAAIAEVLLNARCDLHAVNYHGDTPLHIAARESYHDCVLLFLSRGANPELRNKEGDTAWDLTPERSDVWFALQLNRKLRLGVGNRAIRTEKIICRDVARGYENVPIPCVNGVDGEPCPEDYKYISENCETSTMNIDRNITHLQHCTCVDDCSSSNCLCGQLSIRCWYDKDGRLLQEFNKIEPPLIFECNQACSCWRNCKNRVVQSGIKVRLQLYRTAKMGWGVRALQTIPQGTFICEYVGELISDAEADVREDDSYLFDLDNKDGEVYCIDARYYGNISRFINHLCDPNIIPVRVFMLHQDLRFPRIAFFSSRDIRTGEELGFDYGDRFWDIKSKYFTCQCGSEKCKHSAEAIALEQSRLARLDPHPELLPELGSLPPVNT
Experiment: qHTS Assay for Inhibitors of Histone Lysine Methyltransferase G9a; also: nearly all actives have a fitted effect of over 75% in size
Conditions: G9a H3K9 monomethylation, AlphaScreen, 2 h; activity, negative = inhibition: at 59 µM (top of the series) unless noted
Summary of the method: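 Chemiluminescent proximity detection of H3K9 monomethylation, read after 10 min bead incubation in the dark. Reaction: 20 nM G9a, 500 nM biotin-H3K9 peptide, 20 uM SAM cofactor, 2 h, room temperature, following 15 min enzyme-compound preincubation.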
% is scaled to controls: 0 for no effect and ±100 for the full control effect; potency is read from the fitted curve at half-maximal effect; tags tell the direction and shape of the fitted curve.

Row | SMILES | Potency | activity, negative = inhibition
1 | COc1ccc(S(=O)(=O)N(CC(=O)N2CCOCC2)c2cc(Cl)ccc2OC)cc1OC | inconclusive: 89.1 µM [inhibitor, partial curve, poor fit] | –
2 | Nc1[nH]n2c(=O)cc(-c3ccccc3)nc2c1N=Nc1ccccc1 | inconclusive: 89.1 µM [inhibitor, single point] | –
3 | CCOc1ccc(C(F)(F)F)cc1NC(C)=O | inconclusive: 89.1 µM [inhibitor, single point] | –
4 | COc1ccc(-c2nc(CS(=O)CC(=O)NCCc3ccccc3)c(C)o2)cc1OC (stereo unspecified) | inconclusive: 39.8 µM [inhibitor, single point] | –
5 | CC1CCc2nc3ccc(S(=O)(=O)N4CCC(C(=O)N5CCCCC5)CC4)cc3c(C(=O)O)c2C1 (stereo unspecified) | active: 44.7 µM | –
6 | S=c1[nH]nc(-c2cc(-c3ccccc3)n[nH]2)n1/N=C/c1cccs1 | active: 1.58 µM | –
7 | COc1ccc(C(=O)Nc2ccc3nc4c(c(Nc5ccc(OC)c(OC)c5)c3c2)CCCC4)c(OC)c1 | – | inactive: -20.5%
8 | COc1ccc(NC(=O)c2c(SC)nsc2SC)cc1 | – | inconclusive: -88.9% [inhibitor]
9 | Cc1cc(C)cc(-n2ccnc(NCCc3ccccc3)c2=O)c1 | – | inactive: -4.85%
10 | Cc1ccc(C)c(NC(=S)NCCSc2ccc(Cl)cc2)c1 | – | inactive: 2.14%
11 | CCOc1ccc(OCC(=O)OCC(=O)NNC(=O)c2ccc([N+](=O)[O-])cc2)cc1 | inconclusive: 44.7 µM [inhibitor, partial curve] | –
12 | Cc1sc(NC(=O)c2ccco2)c(C(c2cccnc2)N2CCN(c3ccc(F)cc3)CC2)c1C (stereo unspecified) | inconclusive: 35.5 µM [inhibitor, single point] | –
13 | CCS(=O)(=O)N1CCN(c2ccc([N+](=O)[O-])c(N3CCOCC3)c2)CC1 | inconclusive: 56.2 µM [inhibitor, single point] | –
14 | CCCOc1ccc2oc(=O)c3c(c2c1)CCCN3C(=O)CN1CCN(C(=O)c2ccco2)CC1 | inconclusive: 39.8 µM [inhibitor, single point] | –
15 | Cc1ccc(C(=O)OCC(=O)N2CCCCCC2)c(O)c1 | – | inactive: 29% [at 12.7 µM]
16 | O=C(NC(=S)N1CCCC1)c1cccc([N+](=O)[O-])c1 | active: 79.4 µM | –
17 | CCc1ccc(-n2c(=O)c3ccccc3n(CC(=O)NCCc3ccc(OC)c(OC)c3)c2=O)cc1 | – | inactive: -2.73%
18 | COc1ccc(CNC(=O)C(C)N2CCN(c3ccc(C(C)=O)cc3)CC2)cc1 (stereo unspecified) | inconclusive: 3.55 µM [inhibitor, full curve] | –
19 | CN(c1ccccc1)S(=O)(=O)c1ccc(C(=O)Nc2nnc(C3CC3)o2)cc1 | – | inactive: 8.03% [at 102 µM]
20 | COc1ccccc1NC(=O)CN1CCN(CC(=O)Nc2ccc(F)cc2F)CC1 | – | inactive: 24.6% [at 102 µM]
21 | CCn1cc2nc(SCc3cccc(C(F)(F)F)c3)n(Cc3ccc(Cl)cc3)c(=O)c2n1 | – | inactive: 3.08%
22 | O=C(O)CC/C(=N\Nc1ccc(S(=O)(=O)N2CCOCC2)cc1[N+](=O)[O-])c1cccs1 | – | inconclusive: -80.3% [inhibitor]
23 | c1ccc(-c2cccs2)nc1 | – | inactive: 31.4% [at 102 µM]
24 | CCN(CC)CCn1c(=O)n(-c2ccc(Cl)cc2)c(=O)c2c3c(sc21)CN(C)CC3 | inconclusive: 25.1 µM [inhibitor, single point] | –

Row | SMILES | Potency | activity, negative = inhibition
25 | Cn1nc(C(C)(C)C)cc1C(=O)O | – | inactive: 6.26% [at 12.7 µM]
26 | CCOC(=O)c1c(NC(=O)COC)sc2c1CCCC2 | – | inactive: 5.98% [at 12.7 µM]
27 | OCCN(Cc1ccccc1)Cc1ccccc1O | active: 10 µM | –
28 | Cc1cc(C)c2[nH]c(=O)c(CN(C(=O)C3CCCO3)C3CCCC3)cc2c1 (stereo unspecified) | inconclusive: 89.1 µM [inhibitor, single point] | –
29 | CC1CCCC(NC(=O)COC(=O)[C@@H]2CC(O)CN2S(=O)(=O)c2ccc3c(c2)OCCO3)C1C (stereo partly specified) | – | inactive: 10.2%
30 | Cc1ccc(NC(=O)C(C)C(=O)Nc2ccc(C)cc2)cc1 | – | inactive: -42.3% [at 102 µM]
31 | COc1cc(CN2CCNC(=O)C2CC(=O)N2CCCCO2)cc(OC)c1 (stereo unspecified) | inconclusive: 70.8 µM [inhibitor, partial curve] | –
32 | O=S(=O)(c1cccc(C(F)(F)F)c1)N(CCCN1CCOCC1)Cc1cccs1 | active: 4.47 µM | –
33 | CN1C(=O)c2ccccc2NC(=O)[C@]12O[C@@H]2c1cccc(O)c1 | inconclusive: 1.41 µM [inhibitor, single point] | –
34 | COc1ccc(OC)c(/C=C/C(=O)Nc2ccc3c(c2)CCC3)c1 | inconclusive: 31.6 µM [inhibitor, single point] | –
35 | O=[N+]([O-])c1cc(Br)c(O)c(C=Nc2ccc(N3CCOCC3)cc2)c1 | active: 35.5 µM | –
36 | O=C(NC(=S)Nc1ccc2c(c1)OCCO2)c1cccc(Br)c1 | inconclusive: 31.6 µM [inhibitor, single point] | –
37 | O=C(c1ccc(-c2nc3ccccc3s2)o1)N1CCN(c2ccccc2O)CC1 | inconclusive: 79.4 µM [inhibitor, single point] | –
38 | Cn1cnnc1Sc1cc(N2CCN(S(=O)(=O)c3ccccc3)CC2)ccc1[N+](=O)[O-] | inconclusive: 7.08 µM [inhibitor, full curve, poor fit] | –
39 | COC(=O)Cn1c(=NC(=O)c2ccc3c(c2)OCCO3)sc2ccccc21 | – | inactive: -8.1%
40 | COc1ccc(NC(=O)C(Cc2c[nH]c3ccccc23)NC(=O)OC(C)(C)C)cc1 (stereo unspecified) | – | inactive: -36.9%
41 | Cc1ccn2c(Nc3c(C)cccc3C)c(-c3ccsc3)nc2c1 | active: 10 µM | –
42 | Cc1nn(Cc2ccccc2)c(Cl)c1C(=O)NCc1ccc(C)n1C | inconclusive: 31.6 µM [inhibitor, single point] | –
43 | N#Cc1c[nH]n2c(=O)cc(Cc3ccccc3)nc12 | inconclusive: 50.1 µM [inhibitor, partial curve, poor fit] | –
44 | COc1ccc(N2CC(NC(=O)c3cccs3)CC2=O)cc1 (stereo unspecified) | – | inactive: 3.21%
45 | Cc1cccc(NC(=O)CN2CCN(C(=O)c3cccc(-n4cnnn4)c3)CC2)c1C | inconclusive: 3.16 µM [inhibitor, single point] | –
46 | O=C(NCc1ccccn1)[C@H]1C[C@@H]1[C@H](NP(=O)(c1ccccc1)c1ccccc1)c1ccccc1 | – | inactive: -14.7% [at 102 µM]
47 | CCN1C(=O)/C(=C\c2ccco2)C(C(=O)OC)=C1C | inconclusive: 17.8 µM [inhibitor, single point] | –
48 | CCn1c(SCC(=O)N(C)C)nc2cc(S(=O)(=O)N3CCOCC3)ccc21 | inconclusive: 50.1 µM [inhibitor, partial curve] | –

Row | SMILES | Potency | activity, negative = inhibition
49 | N#Cc1c(Cl)nc(-c2ccncc2)nc1-c1ccccc1 | active: 28.2 µM | –
50 | CCCC(C(=O)Nc1cccc(S(=O)(=O)N2CCCC2)c1)c1ccccc1 (stereo unspecified) | active: 15.8 µM | –
51 | Cc1ccc(C(=O)n2nc(C)c(S(=O)(=O)N3CCCCCC3)c2C)cc1C | – | inactive: 35.2%
52 | O=[N+]([O-])c1ccc(S(=O)(=O)CC(CN2CCCCC2)N2CCCCC2)cc1 (stereo unspecified) | active: 35.5 µM | –
53 | Cc1c(Cl)cnn1CC(=O)NC1C(=O)N2C(C(=O)O)=C(CSc3nnnn3C)CSC12 (stereo unspecified) | inconclusive: 39.8 µM [inhibitor, partial curve, poor fit] | –
54 | Cc1ccc(S(=O)(=O)N2CC=C(c3c(C)n(C)c4ccccc34)CC2)cc1 | inconclusive: 8.91 µM [inhibitor, partial curve, poor fit] | –
55 | COC(=O)c1ccc(NC(=O)C(=O)c2cn(CC(=O)N3CCOCC3)c3ccccc23)cc1 | – | inactive: 46.4% [at 102 µM]
56 | Cc1nn(C)c(Cl)c1CN1CCC(n2nccc2NC(=O)C2CCCC2)CC1 | inconclusive: 6.31 µM [inhibitor, partial curve] | –
57 | C=CCN(CC=C)CCOc1cc(C)ccc1[N+](=O)[O-] | active: 10 µM | –
58 | CCN1C(=O)[C@@H]2[C@@H](c3ccc(-c4ccc(OC)cc4)c(OC)c3)N3CCC[C@@]3(C(=O)OC)[C@@H]2C1=O | – | inactive: -8.12% [at 2.33 µM]
59 | Cc1nnc(SCC2=C(C(=O)O)N3C(=O)C(NC(=O)Cn4ncc(Cl)c4C)C3SC2)s1 (stereo unspecified) | active: 28.2 µM | –
60 | CCOc1cccc2sc(N3CCN(C(=O)c4ccc5c(c4)CCCC5)CC3)nc12 | inconclusive: 1.12 µM [inhibitor, partial curve, poor fit] | –
61 | COc1ccc(NS(=O)(=O)c2cc(C(=O)O)ccc2C)cc1 | inconclusive: 89.1 µM [inhibitor, single point] | –
62 | Cc1cccc(NCc2ccccc2O)c1C | inconclusive: 50.1 µM [inhibitor, partial curve, poor fit] | –
63 | CCOC(=O)N1CCC(N2C(=O)c3ccc(C(=O)NCc4ccc(F)cc4)cc3C2=O)CC1 | inconclusive: 31.6 µM [inhibitor, full curve] | –
64 | COCc1ccccc1C1=CC(=O)C[C@H](c2ccc(OC)cc2)C1 | – | inactive: -1.24% [at 2.33 µM]
65 | CCCC(=O)Oc1ccc(-c2nccc(C(OC)OC)n2)cc1 | – | inactive: 6.49% [at 102 µM]
66 | CC1(C)CC(N2CCCC2)=CC(=[N+]2CCCCCC2)C1 | inconclusive: 56.2 µM [inhibitor, partial curve, poor fit] | –
67 | Cc1ccc(N=Nc2c(C)[nH]n(-c3ccccc3)c2=O)cc1Br | active: 3.55 µM | –
68 | CSc1ccccc1C(=O)N1CCN(S(=O)(=O)c2sc(C(=O)O)c(C)c2C(=O)O)CC1 | inconclusive: 1 µM [inhibitor, single point] | –
69 | CCS(=O)(=O)N1CCN(c2ccc([N+](=O)[O-])c(NCc3cccnc3)c2)CC1 | inconclusive: 89.1 µM [inhibitor, single point] | –
70 | Cn1c(=O)c2sccc2n2c(CCC(=O)N3CCN(c4ccc(F)cc4)CC3)nnc12 | – | inactive: -15.9%
71 | Cc1ccc(S(=O)(=O)N2CCCCC2C(=O)Nc2nncs2)cc1 (stereo unspecified) | active: 39.8 µM | –

From PubChem BioAssay AID504332 (National Center for Advancing Translational Sciences (NCATS), 2011)
